Experiment [1] concerns RAW-Dual. The experiment in a line: NF-kB SEAP reporter activity, fold change vs agonist alone; higher = enhanced NF-kB activity. In outline:
(§1)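 Reporter activity is given as fold change relative to agonist-alone wells. To measure it, 50 nL of library stock was pin-tooled onto RAW-Dual macrophages (50,000 cells/well, DMEM, 384-well plates), a PRR agonist followed 1 h later, and cells stayed at 37 °C, 5% CO2. Twenty hours on, supernatant was assayed for IRF (QuantiLuc luminescence) and NF-κB (QuantiBlue, 620 nm absorbance), and wells under 70% of agonist-control IncuCyte confluency in both mask sets were marked cytotoxic.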

The test system of experiment [2] is RAW-Dual. The experiment in a line: NF-kB SEAP reporter activity, fold change vs agonist alone; cytotoxicity flag (confluency mask): not cytotoxic; higher = enhanced NF-kB activity. Put shortly: as §1
The mark [3] stands for this setting: library stock concentration (final ~1000-fold dilution): 10 mM, cytotoxicity flag (confluency mask): not cytotoxic, agonist: Imiquimod (TLR7) […].
[4] abbreviates: library stock concentration (final ~1000-fold dilution): 10 mM, cytotoxicity flag (confluency mask): not cytotoxic, agonist: MPLA (TLR4) […].
Setting [5] is: agonist: ODN 1826 (TLR9) 0.5 ug/mL.
Setting [6] is: agonist: Pam2CSK4 (TLR2/6) 0.1 ug/mL.
The mark [7] stands for this setting: agonist: Pam3CSK4 (TLR2/1) 0.1 ug/mL.

The full ranking holds about 2,900 compounds; the median of “NF-kB SEAP reporter activity, fold change vs agonist alone” is about 0.99, and the highest 2% start at about 2.6. Some of the results follow.

Regarding `NC(=O)c1ccc(N(C(N)=O)c2c(F)cccc2F)nc1-c1ccc(F)cc1F`, the “NF-kB SEAP reporter activity” value in experiment [1] (setting [3]) is 0.688; in experiment [1] (setting [4]), 1.44.
On to `NC(=O)c1ccc(N(C(N)=O)c2c(F)cccc2F)nc1-c1ccc(F)cc1F` (library stock concentration (final ~1000-fold dilution): 10 mM), for which the “NF-kB SEAP reporter activity” value came out at 1.06 in experiment [2] (agonist: LPS (TLR4) 0.1 ug/mL), 0.695 in experiment [2] (setting [5]), 0.455 in experiment [2] (setting [6]) and 0.465 in experiment [2] (setting [7]).
For `COc1c(C)c(C(=O)c2ccc(N)c(C(=O)O)c2)n2ccccc12` (library stock concentration (final ~1000-fold dilution): 10 mM), in that order: 0.894, 1.08, 1.21 and 1.35.
Turning to `COc1c(C)c(C(=O)c2ccc(N)c(C(=O)O)c2)n2ccccc12`, the “NF-kB SEAP reporter activity” value in experiment [1] (setting [3]) worked out at 0.962; in experiment [1] (setting [4]) it was 1.05.
Consider `Cc1c(C(=O)Nc2ccc(Oc3ccnc4[nH]cc(-c5ccccc5)c34)c(F)c2)c(=O)n(-c2ccc(F)cc2)n1C`, for which the “NF-kB SEAP reporter activity” value was found to be 0.253 in experiment [1] (setting [3]) and 0.315 in experiment [1] (setting [4]).
In the case of `Cc1c(C(=O)Nc2ccc(Oc3ccnc4[nH]cc(-c5ccccc5)c34)c(F)c2)c(=O)n(-c2ccc(F)cc2)n1C` (library stock concentration (final ~1000-fold dilution): 10 mM), the “NF-kB SEAP reporter activity” value was 0.63 in experiment [2] (agonist: LPS (TLR4) 0.1 ug/mL), 0.819 in experiment [2] (setting [5]), 0.14 in experiment [2] (setting [6]) and 0.149 in experiment [2] (setting [7]).
Consider `O=C1O[C@H]([C@@H](O)CO)C(O)=C1OP(=O)(O)O`, for which the “NF-kB SEAP reporter activity” value was 0.995 in experiment [1] (library stock concentration (final ~1000-fold dilution): 10 mM water, cytotoxicity flag (confluency mask): not cytotoxic, agonist: Imiquimod (TLR7) […]) and 1.02 in experiment [1] (library stock concentration (final ~1000-fold dilution): 10 mM water, cytotoxicity flag (confluency mask): not cytotoxic, agonist: MPLA (TLR4) […]).
With `O=C1O[C@H]([C@@H](O)CO)C(O)=C1OP(=O)(O)O` (library stock concentration (final ~1000-fold dilution): 10 mM water), the “NF-kB SEAP reporter activity” value turned out to be 1.23 in experiment [2] (agonist: LPS (TLR4) 0.1 ug/mL), 1.19 in experiment [2] (setting [5]), 1.16 in experiment [2] (setting [6]) and 1.21 in experiment [2] (setting [7]).
As for `COc1nccc(-c2c(-c3ccc(F)cc3)ncn2C2CCC(O)CC2)n1` (configuration not stated) (library stock concentration (final ~1000-fold dilution): 10 mM), the “NF-kB SEAP reporter activity” value in experiment [2] (agonist: LPS (TLR4) 0.1 ug/mL) was 1.81; in experiment [2] (setting [5]), 0.861; in experiment [2] (setting [6]), 0.565; in experiment [2] (setting [7]), 0.724.
Turning to `COc1nccc(-c2c(-c3ccc(F)cc3)ncn2C2CCC(O)CC2)n1` (configuration not stated), the “NF-kB SEAP reporter activity” value in experiment [1] (setting [3]) is 0.875; in experiment [1] (setting [4]), 1.36.
As for `CCC1(c2cnc[nH]2)Cc2ccccc2C1` (library stock concentration (final ~1000-fold dilution): 10 mM), the “NF-kB SEAP reporter activity” value in experiment [2] (agonist: LPS (TLR4) 0.1 ug/mL) was found to be 0.919; in experiment [2] (setting [5]) it was 0.802; in experiment [2] (setting [6]) it was 0.988; in experiment [2] (setting [7]), 0.782.
Consider `CCC1(c2cnc[nH]2)Cc2ccccc2C1`, for which the “NF-kB SEAP reporter activity” value in experiment [1] (setting [4]) is 0.967.
As for `CC(N)c1ccc(C(=O)Nc2ccnc3[nH]ccc23)cc1.Cl.Cl` (configuration not stated), the “NF-kB SEAP reporter activity” value in experiment [1] (library stock concentration (final ~1000-fold dilution): 10 mM, cytotoxicity flag (confluency mask): cytotoxic (confluency <70% of control), agonist: Imiquimod (TLR7) […]) was determined as 0.387; in experiment [1] (library stock concentration (final ~1000-fold dilution): 10 mM, cytotoxicity flag (confluency mask): cytotoxic (confluency <70% of control), agonist: MPLA (TLR4) […]), 0.348.
